Over roughly 33,000 sequences, “E-score (-0.5 to 0.5)” has its median near -0.035; the highest 2% begin near 0.34. Some of the results follow.
These sequences were tested against T1, Mot3 (UniProt P54785) (assay: PBM E-score (8-mer binding enrichment) (E-score (-0.5 to 0.5)); higher = stronger / more preferred TF binding; most listed sequences are background and not binding sites). Details: protein concentration: 200 nM; construct: GST-full length.
T1 sequence: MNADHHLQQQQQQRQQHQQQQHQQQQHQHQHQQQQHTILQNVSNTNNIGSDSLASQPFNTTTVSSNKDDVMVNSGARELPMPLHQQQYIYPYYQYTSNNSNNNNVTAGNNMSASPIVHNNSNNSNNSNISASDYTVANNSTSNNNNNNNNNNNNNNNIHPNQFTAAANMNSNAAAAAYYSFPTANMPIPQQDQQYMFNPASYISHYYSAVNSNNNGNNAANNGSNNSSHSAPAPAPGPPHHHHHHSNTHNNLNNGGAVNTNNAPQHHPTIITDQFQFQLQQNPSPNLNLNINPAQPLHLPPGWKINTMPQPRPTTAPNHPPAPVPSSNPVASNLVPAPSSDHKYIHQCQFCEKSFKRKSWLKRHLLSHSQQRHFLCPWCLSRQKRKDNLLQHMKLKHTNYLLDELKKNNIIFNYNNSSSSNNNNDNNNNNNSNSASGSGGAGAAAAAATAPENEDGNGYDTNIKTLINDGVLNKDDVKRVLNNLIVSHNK
Summary of the method: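 Detection of bound protein used fluorescent anti-GST, with scans normalised by masliner. The proteins were GST-tagged yeast transcription factors applied at about 100-200 nM to universal all-10-mer Agilent arrays made double-stranded by primer extension. Each ungapped eight-base word, pooled with its reverse complement, was scored with an E-score from the Universal PBM Analysis Suite.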

Row | Sequence | PBM E-score
1 | GTTTTACA | 0.371
2 | CTCTATTC | -0.239
3 | GTAATGAC | 0.221
4 | CTTCTCAA | -0.0894
5 | ACGTGCTA | 0.199
6 | CACTGCGA | -0.18
7 | CGGGTGCC | 0.0693
8 | ATGGCACC | -0.214
9 | AGTTTTAC | 0.257
10 | CTTGACCA | -0.0229
11 | CGCGTTGC | 0.253
12 | ACGTGGTG | -0.0374
13 | GGGGGTCA | -0.383
14 | TGTTTGAA | 0.106
15 | AGAATTCG | -0.0852
16 | GGCCCCGA | -0.174
17 | GAACCAGA | 0.0364
18 | AGATAGAG | 0.0208
19 | CAAGTTCC | 0.201
20 | AAGTAGCG | -0.169
21 | CGGTCAAG | -0.188
22 | ACTGTAAC | 0.177

Row | Sequence | PBM E-score
23 | ACGCATCA | 0.141
24 | CAGTTGAA | -0.0189
25 | AAAAGGGA | -0.0997
26 | GTATACCA | -0.0785
27 | AAACACTA | 0.144
28 | GACGCGTC | 0.0366
29 | CGGCTAAA | -0.0522
30 | AGGATGCG | -0.114
31 | ACTAGAAG | 0.0479
32 | GTTCCGTA | 0.0962
33 | AACATGCG | 0.307
34 | CCTAACGA | 0.0291
35 | AAAAAGAT | 0.0672
36 | AGGAAGTA | -0.159
37 | CTCCCCGC | 0.0369
38 | ACCGGTAG | -0.102
39 | AAACATGA | 0.327
40 | TCTCTTAA | 0.184
41 | CTTCGCAA | -0.0628
42 | GGGCCATA | -0.339
43 | TATAGCGA | 0.0325
44 | ACGGATAC | 0.0994

Row | Sequence | PBM E-score
45 | CTTTGACA | 0.165
46 | CACCAGCC | -0.159
47 | AGTGTCCC | -0.237
48 | GCTCATAA | -0.0817
49 | ATCAGGTC | -0.0881
50 | AATAATCG | 0.187
51 | AAAGTGGC | -0.201
52 | GATGGGTA | -0.0309
53 | ATGCTCGA | -0.161
54 | ATGATAAT | 0.152
55 | CCGTCCCA | -0.237
56 | CACAAGTC | -0.137
57 | GGCCTGGA | -0.274
58 | CGTTGACA | 0.0924
59 | GAAAGAAC | -0.0119
60 | ACGGGGAC | -0.198
61 | AGCTTTAC | 0.153
62 | AGGAAGAA | -0.0203
63 | ACCGCGGA | -0.245
64 | AGATAACC | 0.00955
65 | ACTACCAA | -0.0391
66 | AGTGAGAG | -0.126

Row | Sequence | PBM E-score
67 | CAGAGACG | -0.059
68 | GCCCAGCA | -0.192
69 | AGTTATAG | 0.162
70 | CCCAGGCC | -0.191
71 | AGCTCGAC | -0.0623
72 | ATTACCTA | 0.332
73 | GCGACTAA | 0.0862
74 | CGGTTGTC | 0.00851
75 | ATATCTAC | 0.171
76 | GCCTGTAA | 0.391
77 | ATCTTCCA | -0.0147
78 | CTTGGCCA | -0.239
79 | CGGGTAGC | -0.213
80 | ATATAGCC | 0.117
81 | ACGTTTGA | 0.0848
82 | CTTGGCAC | -0.0521
83 | GCCAGAAC | -0.112
84 | GGTACCTA | 0.424
85 | CGATTAGA | -0.211
86 | ATCAGATA | 0.0452
87 | CGGATAGA | 0.0854
88 | GTGGTGGA | -0.0887

Row | Sequence | PBM E-score
89 | CCCACAGA | -0.053
90 | ATCTTAGG | -0.0614
91 | AACCTCGT | 0.146
92 | AGACTAGG | -0.164
93 | TCTATACA | 0.179
94 | CAAGCGTG | -0.0248
95 | GACTAAAC | 0.0174
96 | ACGCTTCC | -0.0948
97 | ACAATGGA | -0.0296
98 | CGCTCCGA | -0.0751
99 | ACCCCCCA | -0.178
100 | CGACTGAA | -0.172
101 | CTGTACTC | -0.179
102 | CGTACTAA | 0.138
103 | AGTGGGCG | -0.192
104 | AATCCGAC | -0.0692
105 | GGTGGCCA | -0.201
106 | GAAAGATA | 0.00378
107 | ATTGCGCA | -0.122
108 | ATTGGTTC | 0.149
109 | ATACGGTC | -0.061
